In all, about 310,000 compounds went through this assay and about 14,000 (4.5%) showed an effect of 50% or more. Effects have a minus sign here. Some of the results follow.
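Also: peak tail current of the secondary pulse compared with the same well before compound.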

The target of this assay is human ether-à-go-go-related gene (hERG) potassium channel (human, UniProt Q12809). Kind of assay: primary screen, population patch clamp on CHO cells stably expressing hERG.
Chain of human ether-à-go-go-related gene (hERG) potassium channel (Q12809 whole entry, looked up): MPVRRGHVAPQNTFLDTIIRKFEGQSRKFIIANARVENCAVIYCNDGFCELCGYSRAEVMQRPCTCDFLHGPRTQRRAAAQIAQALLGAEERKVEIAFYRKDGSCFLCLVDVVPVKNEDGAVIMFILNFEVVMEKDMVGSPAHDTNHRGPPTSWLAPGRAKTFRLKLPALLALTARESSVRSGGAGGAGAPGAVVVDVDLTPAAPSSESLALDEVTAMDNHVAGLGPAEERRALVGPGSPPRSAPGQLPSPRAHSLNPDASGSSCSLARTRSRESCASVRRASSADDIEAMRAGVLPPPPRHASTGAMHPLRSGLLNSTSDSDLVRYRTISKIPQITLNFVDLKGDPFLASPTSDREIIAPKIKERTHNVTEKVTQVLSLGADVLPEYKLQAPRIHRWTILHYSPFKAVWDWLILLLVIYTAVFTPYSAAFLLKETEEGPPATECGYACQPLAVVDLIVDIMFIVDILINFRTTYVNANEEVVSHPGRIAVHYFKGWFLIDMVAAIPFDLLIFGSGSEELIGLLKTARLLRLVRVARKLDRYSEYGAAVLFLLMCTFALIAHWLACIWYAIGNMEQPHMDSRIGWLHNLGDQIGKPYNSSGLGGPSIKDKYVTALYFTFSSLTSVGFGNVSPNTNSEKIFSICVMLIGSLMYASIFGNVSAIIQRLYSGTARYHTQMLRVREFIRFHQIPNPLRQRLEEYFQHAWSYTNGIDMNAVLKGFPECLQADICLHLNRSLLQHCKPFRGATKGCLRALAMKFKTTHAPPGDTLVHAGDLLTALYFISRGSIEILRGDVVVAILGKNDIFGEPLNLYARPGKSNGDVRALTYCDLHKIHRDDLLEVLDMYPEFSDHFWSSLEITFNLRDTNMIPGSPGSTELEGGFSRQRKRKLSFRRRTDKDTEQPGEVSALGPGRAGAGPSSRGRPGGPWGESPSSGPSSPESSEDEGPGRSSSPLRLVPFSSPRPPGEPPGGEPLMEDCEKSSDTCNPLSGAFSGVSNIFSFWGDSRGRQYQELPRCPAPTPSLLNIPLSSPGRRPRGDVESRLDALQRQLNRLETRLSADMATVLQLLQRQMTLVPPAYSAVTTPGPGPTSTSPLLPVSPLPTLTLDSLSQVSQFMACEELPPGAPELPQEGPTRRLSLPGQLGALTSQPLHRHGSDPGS
As to `CN1CCN(c2ccc(S(=O)(=O)N3CCOCC3)cc2NC(=O)COc2ccc(F)cc2Cl)CC1`, the “hERG current change (%, negative = inhibition) at 10uM” value is -61.5%.

Regarding `NC(=O)COC(=O)c1cc([N+](=O)[O-])ccc1NCCO`, the “hERG current change (%, negative = inhibition) at 10uM” value came to 3.83%.

For `O=C(CN1CCOCC1)NNC(=S)Nc1ccccc1`, the “hERG current change (%, negative = inhibition) at 10uM” value is given as -29.9%.

For `O=C(COC(=O)C1=NN(c2ccccc2)C(=O)CC1)Nc1ccc([N+](=O)[O-])cc1C(F)(F)F`, the “hERG current change (%, negative = inhibition) at 10uM” value worked out at 5.08%.

In the case of `O=[N+]([O-])c1ccc(NCCNS(=O)(=O)c2ccccc2)c(C(F)(F)F)c1`, the “hERG current change (%, negative = inhibition) at 10uM” value is recorded as -16.3%.

`C=C(C)Cn1c(Sc2nc3ccccc3[nH]2)nc2c1c(=O)[nH]c(=O)n2C`: the “hERG current change (%, negative = inhibition) at 10uM” value is listed as -18.2%.

For `CC(C)c1nnc(NC(=O)C2CCN(C(=O)Nc3ccccc3)CC2)s1`, the “hERG current change (%, negative = inhibition) at 10uM” value is reported as -1.35%.

`CCn1c(=O)c(=O)[nH]c2cc(C(=O)NCC3CCCCC3)ccc21`: the “hERG current change (%, negative = inhibition) at 10uM” value was -13.9%.

Consider `CCOCCCNC(=O)c1ccc2c(c1)ncn2-c1ccccc1OC`, for which the “hERG current change (%, negative = inhibition) at 10uM” value was -4.39%.

Take `O=C(CSc1nnc(-c2cccc(S(=O)(=O)N3CCOCC3)c2)n1C1CCCCCC1)NCc1ccccc1`: the “hERG current change (%, negative = inhibition) at 10uM” value was -17.5%.

Take `CN1CCCC(C(=O)c2ccccc2)C1.O=C(O)/C=C/C(=O)O` (stereo not shown): the “hERG current change (%, negative = inhibition) at 10uM” value is 10.6%.

Take `O=C(Nc1ccc(N2CCOCC2)cc1)c1cnccn1`: the “hERG current change (%, negative = inhibition) at 10uM” value is reported as 28%.

Take `CS(=O)(=O)N1CCc2cc(C(=O)NC3CC3)ccc21`: the “hERG current change (%, negative = inhibition) at 10uM” value is reported as 17%.

For `Cc1ccc(NC(=O)CSc2ccccn2)cc1S(=O)(=O)N1CCOCC1`, the “hERG current change (%, negative = inhibition) at 10uM” value turned out to be 0.975%.

On to `C#CCOCCOCCOCCNc1nc(N2CCOCC2)nc(N2CCN(C(=O)[C@H]([C@@H](C)CC)n3cc([C@@H](N)CO)nn3)CC2)n1.Cl`, for which the “hERG current change (%, negative = inhibition) at 10uM” value worked out at 2.8%.

Turning to `CCOC(=O)C1=C(CCl)NC(=O)NC1c1ccc2c(c1)OCO2` (stereo not shown), the “hERG current change (%, negative = inhibition) at 10uM” value is reported as -2.64%.

Regarding `O=C(Nc1ccc(-n2cnnn2)cc1)C1CCCN1C(=O)NC1CCCCC1` (stereo not shown), the “hERG current change (%, negative = inhibition) at 10uM” value is reported as -63.3%.

Consider `C=CCn1c(O)c(/C=C/C=Nc2ccccc2)c(=O)[nH]c1=O`, for which the “hERG current change (%, negative = inhibition) at 10uM” value is listed as 24.8%.

With `COc1ccc(N2CC(C(=O)Nc3nnc(SCC(=O)c4ccccc4)s3)CC2=O)cc1` (stereo not shown), the “hERG current change (%, negative = inhibition) at 10uM” value worked out at 19.5%.

With `CCN(CC)c1nc(-c2ccccn2)nc(-c2ccccc2)c1C#N`, the “hERG current change (%, negative = inhibition) at 10uM” value is -20.4%.

`CCOC(=O)c1c(C)sc2c1N(C(=O)CN1CCOCC1)c1cc(Cl)ccc1S2`: the “hERG current change (%, negative = inhibition) at 10uM” value was -21.5%.

As to `Cc1ccc(NC(=O)CSc2ncc(S(=O)(=O)c3ccccc3)c(=O)[nH]2)cc1C`, the “hERG current change (%, negative = inhibition) at 10uM” value is -8.72%.

For `C/C(=N\NC(=O)C1(C)CC1(Br)Br)c1cccc(NC(=O)C(C)(C)C)c1` (stereo not shown), the “hERG current change (%, negative = inhibition) at 10uM” value is recorded as 0.384%.

With `COc1ccc(C2=NOC(C(=O)NCc3cccnc3)C2)cc1OC` (stereo not shown), the “hERG current change (%, negative = inhibition) at 10uM” value is recorded as 14%.

As for `O=C(Cn1c(=O)c2cccn2c2ccccc21)NCCc1ccccc1`, the “hERG current change (%, negative = inhibition) at 10uM” value is 16.5%.

As for `Cc1nc(=O)cc(-c2ccccc2)n1-c1ccccc1`, the “hERG current change (%, negative = inhibition) at 10uM” value was found to be 11.4%.

In the case of `C(=N\c1nc2ccccc2[nH]1)/c1cccs1`, the “hERG current change (%, negative = inhibition) at 10uM” value stood at 9.96%.

In the case of `O=C(CSc1ncnc2nc[nH]c12)c1ccc([N+](=O)[O-])cc1`, the “hERG current change (%, negative = inhibition) at 10uM” value was determined as 18.6%.

With `CCCCn1c(C)c(C(=O)O)c2cc(OC)c3ccccc3c21`, the “hERG current change (%, negative = inhibition) at 10uM” value is reported as 15.6%.

Take `COc1cc2ccc3c(CCN(C)C)cc(OC)c(OC)c3c2cc1OC.Cl`: the “hERG current change (%, negative = inhibition) at 10uM” value was -44.5%.

On to `COc1ccc(C2/C(=C(\O)c3cc(C)ccc3C)C(=O)C(=O)N2CCN(C)C)cc1OC` (stereo not shown), for which the “hERG current change (%, negative = inhibition) at 10uM” value is recorded as -2.4%.

For the compound `Cc1ccc(CNC(=O)CCc2c(C)nc3c(c(C)nn3-c3ccc(C)cc3)c2C)cc1`, the “hERG current change (%, negative = inhibition) at 10uM” value is reported as 10.1%.

With `Cn1ccsc1=NC(=O)c1ccccc1OC(F)F`, the “hERG current change (%, negative = inhibition) at 10uM” value is on record as 20.2%.

Consider `Cc1cc(C)c2c(N=NN(C)C)[nH]nc2n1`, for which the “hERG current change (%, negative = inhibition) at 10uM” value was -21.8%.

For `Cc1nnc(SCC(C)C)[nH]c1=O`, the “hERG current change (%, negative = inhibition) at 10uM” value is listed as 15.1%.

In the case of `O=C(NCC(F)(F)F)Nc1cccnc1`, the “hERG current change (%, negative = inhibition) at 10uM” value is on record as 9.93%.

In the case of `O=C(O)C1(S(=O)(=O)c2ccc(Cl)cc2)CCC1`, the “hERG current change (%, negative = inhibition) at 10uM” value is listed as 35.3%.

In the case of `COc1cccc(C(=O)Nc2nc(SCc3ccc(Cl)cc3)n[nH]2)c1`, the “hERG current change (%, negative = inhibition) at 10uM” value was 5.27%.

Take `O=C(CC1Oc2ccccc2NC1=O)NC1CCCC1` (stereo not shown): the “hERG current change (%, negative = inhibition) at 10uM” value turned out to be 9.49%.

In the case of `COc1ccc(NC(=O)CSc2nccn2Cc2ccco2)c(OC)c1`, the “hERG current change (%, negative = inhibition) at 10uM” value is given as 5.93%.

Turning to `CCOC(=O)c1c(NC(=S)Nc2ccc(Cl)cc2)sc2c1CCN(C)C2`, the “hERG current change (%, negative = inhibition) at 10uM” value is given as -74.2%.

For the compound `NC(=O)c1cc(C(=O)Cc2ccccc2)c[nH]1`, the “hERG current change (%, negative = inhibition) at 10uM” value turned out to be 16.4%.

On to `COc1cccc(NC(=O)Nc2cc(C(=O)O)ccc2N2CC3CC(C2)c2cccc(=O)n2C3)c1` (stereo not shown), for which the “hERG current change (%, negative = inhibition) at 10uM” value worked out at 8.25%.

For `Cc1cc(Cl)ccc1OCCCC(=O)NNC(=O)c1ccccc1O`, the “hERG current change (%, negative = inhibition) at 10uM” value is given as 5.88%.

As to `COC(=O)c1c(NC(=O)CSc2nnnn2-c2ccccc2)sc2c1CCC(C(C)(C)C)C2` (stereo not shown), the “hERG current change (%, negative = inhibition) at 10uM” value is reported as -1.38%.

For the compound `NS(=O)(=O)c1ccc(NS(=O)(=O)c2ccc3c(c2)OCCO3)cc1`, the “hERG current change (%, negative = inhibition) at 10uM” value is listed as 20.1%.

`CC(=O)Nc1ccc(S(=O)(=O)NCCC(=O)OCC(=O)NNC(=O)c2ccccc2)cc1`: the “hERG current change (%, negative = inhibition) at 10uM” value is -5.23%.

On to `Cc1ccc(C(=O)OC(C)C(=O)NC2CCCCC2C)cc1S(=O)(=O)N1CCOCC1` (stereo not shown), for which the “hERG current change (%, negative = inhibition) at 10uM” value was -5.61%.

For the compound `CCOC(=O)CC1=C(C(=O)OCC)C2(C(=O)Nc3ccccc32)C(C#N)=C(N)O1` (stereo not shown), the “hERG current change (%, negative = inhibition) at 10uM” value is -0.505%.

In the case of `COc1ccc(C(=O)N/N=C/c2ccc(OC)c(OS(=O)(=O)c3ccccc3)c2)cc1`, the “hERG current change (%, negative = inhibition) at 10uM” value came out at 6.52%.

Consider `CC(=O)Nc1cccc(C(=O)N/N=C/c2c[nH]c3ccccc23)c1`, for which the “hERG current change (%, negative = inhibition) at 10uM” value is recorded as 13.8%.

`COCC(C)NC(=O)c1cc(S(=O)(=O)N2CCCCC2)ccc1N1CCOCC1` (stereo not shown): the “hERG current change (%, negative = inhibition) at 10uM” value is recorded as 7.88%.

As for `CC(C)c1nc2oc3c(NCc4cccnc4)ncnc3c2c2c1CCC2`, the “hERG current change (%, negative = inhibition) at 10uM” value was -50.2%.

Regarding `CCC(C)[C@H](NC(=O)[C@@H]1Cc2ccccc2CN1C(=O)OC(C)(C)C)C(=O)NCC1CCC(C(=O)O)CC1` (stereo partly shown), the “hERG current change (%, negative = inhibition) at 10uM” value worked out at 7.33%.

With `Cc1ccccc1CCN(C(=O)c1csnn1)C(C(=O)NC1CCCC1)c1ccncc1` (stereo not shown), the “hERG current change (%, negative = inhibition) at 10uM” value is given as -42.1%.
